# PMC4336329 (PLoS ONE, 2015)
# In all, about 310,000 compounds went through this assay and about 14,000 (4.5%) showed an effect of 50% or more. The effect is printed as a negative number. Some of the results follow.
# Target: human ether-à-go-go-related gene (hERG) potassium channel (human, UniProt Q12809)
# Test: primary screen, population patch clamp on CHO cells stably expressing hERG
# 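Note: peak tail current of the secondary pulse compared with the same well before compound.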
# Sequence of human ether-à-go-go-related gene (hERG) potassium channel (Q12809 whole entry, looked up): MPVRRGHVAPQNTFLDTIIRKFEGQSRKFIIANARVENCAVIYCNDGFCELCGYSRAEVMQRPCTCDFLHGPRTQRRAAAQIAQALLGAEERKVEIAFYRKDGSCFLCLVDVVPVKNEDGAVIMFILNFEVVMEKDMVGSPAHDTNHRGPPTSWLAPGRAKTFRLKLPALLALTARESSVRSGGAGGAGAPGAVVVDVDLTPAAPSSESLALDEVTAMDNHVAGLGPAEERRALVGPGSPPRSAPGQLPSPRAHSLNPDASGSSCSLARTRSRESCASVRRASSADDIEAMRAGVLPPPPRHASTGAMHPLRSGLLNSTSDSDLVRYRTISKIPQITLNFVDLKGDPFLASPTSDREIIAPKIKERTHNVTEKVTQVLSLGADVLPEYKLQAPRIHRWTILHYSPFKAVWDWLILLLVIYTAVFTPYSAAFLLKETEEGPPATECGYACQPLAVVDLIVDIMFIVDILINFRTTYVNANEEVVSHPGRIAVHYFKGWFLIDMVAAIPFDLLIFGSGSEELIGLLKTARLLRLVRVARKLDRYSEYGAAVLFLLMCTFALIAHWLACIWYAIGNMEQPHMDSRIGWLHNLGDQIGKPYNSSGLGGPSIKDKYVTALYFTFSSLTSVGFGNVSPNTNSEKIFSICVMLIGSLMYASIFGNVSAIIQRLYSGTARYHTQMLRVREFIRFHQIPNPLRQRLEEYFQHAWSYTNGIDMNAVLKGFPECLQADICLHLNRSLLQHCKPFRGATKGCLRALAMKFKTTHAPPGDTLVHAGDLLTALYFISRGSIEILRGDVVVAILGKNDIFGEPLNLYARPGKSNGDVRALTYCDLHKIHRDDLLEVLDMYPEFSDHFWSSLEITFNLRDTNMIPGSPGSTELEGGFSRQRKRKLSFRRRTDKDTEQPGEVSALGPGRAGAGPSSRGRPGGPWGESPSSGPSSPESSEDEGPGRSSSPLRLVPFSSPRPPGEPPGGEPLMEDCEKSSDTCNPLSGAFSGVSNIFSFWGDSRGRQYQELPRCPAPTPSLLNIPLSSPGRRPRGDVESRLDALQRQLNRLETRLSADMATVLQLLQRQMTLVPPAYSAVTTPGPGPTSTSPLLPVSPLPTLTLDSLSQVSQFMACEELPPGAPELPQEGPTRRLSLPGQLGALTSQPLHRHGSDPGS
row,SMILES,"hERG current change (%, negative = inhibition) at 10uM [%]"
1,CC(=O)N1CCN(Cc2nc3cc(NC(=O)c4cccs4)ccc3n2C)CC1,13.8
2,Cc1ccc(C)n1-c1ccc(N2CCOCC2)c([N+](=O)[O-])c1,2.53
3,O=C(Nc1cc(-c2nc3ncccc3o2)ccc1Cl)c1ccc2c(c1)OCO2,10.2
4,C#CCSc1nnc(-c2cccc3ccccc23)o1,-5.95
5,COC(=O)COc1ccc(C)cc1-n1nc2ccccc2n1,-13.2
6,COc1ccc(OC)c(NC(=O)CNC(=O)Cn2ccc3ccccc3c2=O)c1,8.72
7,O=C(CN1C(=O)/C(=C\c2ccccc2Cl)Sc2ccccc21)NCCCN1CCOCC1,-5.29
8,CCCNC1CCS(=O)(=O)C1.Cl (centres unmarked),4.19
9,CN(C)C(CNC(=O)c1cccc(C#N)c1)c1ccco1 (centres unmarked),5.8
10,C/C(CC(=O)Nc1ccc(Cl)cc1)=N\NC(=O)C(=O)NCCO,7.49
11,CCC1(CC)NC(=O)N(CC(=O)OCC(=O)NC(=O)c2ccccc2OC)C1=O,2.84
12,CC(C)c1ccccc1NC(=O)C1CC(=O)N(C2CCCC2)C1 (centres unmarked),12.5
13,Cc1ccc(CN2CCN(Cc3cn(C(C)C)c4ccccc34)CC2CCO)o1 (centres unmarked),-21.8
14,CC(=O)n1cc([C@H]2C=C(C(=O)Nc3ccccc3)O[C@@H](OCCCCO)C2)c2ccccc21,-25
15,Cc1ccc(-n2c(SCC(=O)N3CCCC3)nc3c(c2=O)SCC3)cc1,5.3
16,O=C1CNC(=S)N1CCc1ccc(Cl)cc1,5.96
17,CCOc1ccc(NC(=S)NCC(c2cccnc2)N2CCOCC2)cc1 (centres unmarked),7.27
18,Clc1ccc2[nH]c3c(NCCN4CCOCC4)ncnc3c2c1,-61.8
19,Cn1c2c(c(=O)n(C)c1=O)C(c1ccc(F)cc1)C(C#N)=C(N)O2 (centres unmarked),14.7
20,CCOC(=O)c1cnc2c(C(=O)OCC)cnn2c1N,6.31
21,Cc1ccc(S(=O)(=O)NCCC(=O)NC2CCC(C)CC2)cc1 (centres unmarked),-2.35
22,N#Cc1ccccc1OCC(=O)Nc1cccc(S(=O)(=O)N2CCCC2)c1,5.17

row,SMILES,"hERG current change (%, negative = inhibition) at 10uM [%]"
1,Cc1ccc(C(=O)ONc2ccc(N=NC(=O)c3ccccc3O)cc2)cc1,12.2
2,CCn1nc(NS(=O)(=O)c2ccc([N+](=O)[O-])cc2)c2cc3ccc(C)cc3nc21,2.02
3,O=[N+]([O-])c1c(NCCCO)cc(Sc2ccc(Cl)cc2)c2nonc12,17.8
4,COc1cc(OC)cc(C(=O)Nc2ccc(NC(=O)c3ccco3)c(Cl)c2)c1,13.6
5,COc1cccc(C(=O)NCC2CCCN(C(=O)c3ccc(C=O)cc3)C2)c1OC (centres unmarked),0.357
6,COc1cc(C(=O)Nc2ccc3c(c2)OCO3)ccc1-n1cnnn1,-15.6
7,COc1ccc(C(=O)Oc2cc(N)n(S(=O)(=O)c3ccc(C)cc3)n2)cc1,24.3
8,O=C(NCc1cccs1)c1cc(-c2cccc(Cl)c2)on1,-16.1
9,Cc1coc2c1C(=O)C(=O)c1c-2ccc2c1CCCC2(C)C,19.1
10,Cc1c(NC(=O)c2cccs2)cccc1C(=O)O,-8.42
11,CCc1nnc(NC(=O)C2CCN(S(=O)(=O)c3ccc(C)cc3)CC2)s1,8.48
12,O=C(O)c1ccc(S(=O)(=O)NC2CC2)cc1,10.6
13,OCCCNc1ncnc2sc(-c3ccccc3)cc12,3.23
14,O=C(COC(=O)Cc1ccc(Br)cc1)Nc1ccc(N2CCOCC2)cc1,8.94
15,COc1ccc(CC(=O)Oc2ccccc2C)cc1,6.75
16,COc1cccc(/C=C2\SC(=S)N(c3cccnc3)C2=O)c1OC,3.2
17,COc1ccc(NC(=O)NC2(C(=O)N3CCN(C)CC3)CCCCC2)cc1,9.88
18,COc1ccc(CC(=O)NCc2nnc(SCCOc3ccccc3)n2C)cc1,-11.7
19,CN1CCCCCC1C(=O)N1CCC(N2CCC(C(=O)N3CCOCC3)CC2)CC1 (centres unmarked),-13.4
20,Cc1cccc(OC2CCN(Cc3c(C(=O)N4CCCC4)nc4ccccn34)CC2)c1,-59.4
21,CCN(CC)CCNC(=O)c1ccccn1.O=C([O-])/C=C\C(=O)[O-],16
22,O=C(CSc1ccc2ccccc2c1)Nc1ncccn1,7.7
